Experimental data taken from US20220340642A1 (Kyowa Kirin, published 2022).

How the values were obtained:
[1] = target: T1, soluble recombinant of human LIGHT (His10, GS linker, Asp74-Val240) (human); experiment: SPR, binder captured
T1 chain: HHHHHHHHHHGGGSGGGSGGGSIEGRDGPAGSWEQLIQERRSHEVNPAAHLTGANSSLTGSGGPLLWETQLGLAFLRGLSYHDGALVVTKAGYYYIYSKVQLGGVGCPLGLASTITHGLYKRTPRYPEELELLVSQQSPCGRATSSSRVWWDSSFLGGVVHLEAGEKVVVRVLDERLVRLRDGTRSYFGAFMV
Experimental: (§1) Regarding each of the various wild-type DcR3 controls and the DcR3 variants shown in Table 9, the binding activities to DcR3 ligands (LIGHT, TL1A, FasL) were analyzed by the SPR method using BIAcore T-100 (GE Healthcare). As the buffer, HBS-EP+Buffer was used.
(§2) After 10,000 RU of anti-human antibodies were immobilized to Series S Sensor Chip CM5 using Human Antibody Capture Kit (GE Healthcare), various wild-type DcR3 controls and DcR3 variants were injected at the flow rate of 10 μL/min for 30 seconds and captured. Meanwhile, the buffer containing no protein was injected into reference flow cells. Thereafter, as an analyte, DcR3 ligands of a human, a cynomolgus monkey or a mouse diluted to 0.08 to 80 nmol/L were injected at 10 μL/min for 2 minutes to monitor the binding, and subsequently the buffer was injected for 3 minutes to monitor dissociation. Then, 3 mol/L magnesium chloride was injected at 20 μL/min for 1 minute to perform a regeneration reaction. […] As a result of measurement, except for mouse LIGHT for which a trimer could not be produced, it was confirmed that various wild-type DcR3 controls and DcR3 variants bind to each DcR3 ligand of a human, a cynomolgus monkey or a mouse.

[2] = target: T2, soluble recombinant of human TL1A (His6, GS linker, Leu72-Leu251) (human, UniProt O95150 72-251); experiment: SPR, binder captured
T2 construct: also called His6-TL1A; hTL1A
T2 sequence: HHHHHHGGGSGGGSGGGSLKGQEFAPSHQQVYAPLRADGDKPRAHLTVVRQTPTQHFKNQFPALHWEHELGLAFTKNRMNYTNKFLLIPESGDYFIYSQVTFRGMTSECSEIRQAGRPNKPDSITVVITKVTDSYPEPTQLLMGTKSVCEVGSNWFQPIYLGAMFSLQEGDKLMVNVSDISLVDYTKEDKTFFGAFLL
Experimental: as §1, §2

[3] = target: T3, soluble recombinant of human FasL (His6, Pro134-Leu281) (human, UniProt P48023 134-281); experiment: SPR, binder captured
T3 sequence: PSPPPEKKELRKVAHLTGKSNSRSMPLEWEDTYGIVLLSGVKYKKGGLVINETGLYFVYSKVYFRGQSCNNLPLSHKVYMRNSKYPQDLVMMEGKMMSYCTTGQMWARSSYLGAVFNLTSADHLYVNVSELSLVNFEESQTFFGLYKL
Experimental: as §1, §2

[4] = target: T4, soluble recombinant of cynomolgus monkey LIGHT (His10, GS linker, Asp74-Val240) (cynomolgus monkey); experiment: SPR, binder captured
T4 chain: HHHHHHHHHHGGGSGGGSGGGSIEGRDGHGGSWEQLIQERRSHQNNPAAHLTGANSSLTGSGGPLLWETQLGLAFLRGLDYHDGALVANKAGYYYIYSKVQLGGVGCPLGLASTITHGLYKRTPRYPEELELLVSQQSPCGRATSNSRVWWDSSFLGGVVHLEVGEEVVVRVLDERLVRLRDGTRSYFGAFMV
Experimental: as §1, §2

[5] = target: T5, soluble recombinant of cynomolgus monkey TL1A (His6, GS linker, Leu72-Leu251) (cynomolgus monkey); experiment: SPR, binder captured
T5 construct: also called His6-cynoTL1A
T5 chain: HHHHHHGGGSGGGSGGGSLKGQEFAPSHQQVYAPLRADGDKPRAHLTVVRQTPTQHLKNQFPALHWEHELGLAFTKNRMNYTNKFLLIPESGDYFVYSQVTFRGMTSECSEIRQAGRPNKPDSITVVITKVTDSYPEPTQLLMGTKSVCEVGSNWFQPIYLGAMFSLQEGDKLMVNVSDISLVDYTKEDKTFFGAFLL
Experimental: as §1, §2

[6] = target: T6, soluble recombinant of cynomolgus monkey FasL (His6, Pro133-Leu280) (cynomolgus monkey, UniProt P63308 133-280); experiment: SPR, binder captured
T6 construct: also called His6-cynoFasL
T6 sequence: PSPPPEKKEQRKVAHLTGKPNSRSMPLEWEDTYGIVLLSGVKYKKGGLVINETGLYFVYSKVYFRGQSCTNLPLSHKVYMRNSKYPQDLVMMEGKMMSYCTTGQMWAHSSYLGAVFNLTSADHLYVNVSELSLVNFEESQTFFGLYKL
Experimental: as §1, §2

[7] = target: T7, soluble recombinant of mouse LIGHT (His10, GS linker, Asp72-Val239) (mouse); experiment: SPR, binder captured
T7 chain: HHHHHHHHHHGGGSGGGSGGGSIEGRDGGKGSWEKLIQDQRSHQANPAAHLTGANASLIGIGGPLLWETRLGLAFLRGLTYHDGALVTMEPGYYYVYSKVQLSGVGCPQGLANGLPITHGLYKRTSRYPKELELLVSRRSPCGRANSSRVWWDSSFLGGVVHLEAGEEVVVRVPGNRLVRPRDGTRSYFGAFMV
Experimental: as §1, §2

[8] = target: T8, soluble recombinant of mouse TL1A (His6, GS linker, Ile94-Leu270) (mouse, UniProt Q5UBV8 76-252); experiment: SPR, binder captured
T8 sequence: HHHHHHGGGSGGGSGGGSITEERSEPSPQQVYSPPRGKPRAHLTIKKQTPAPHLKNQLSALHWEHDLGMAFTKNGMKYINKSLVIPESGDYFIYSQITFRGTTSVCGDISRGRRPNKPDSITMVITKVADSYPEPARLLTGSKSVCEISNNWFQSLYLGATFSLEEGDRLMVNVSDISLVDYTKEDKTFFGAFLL
Experimental: as §1, §2

[9] = target: T9, soluble recombinant of mouse FasL (His6, Pro132-Leu279) (mouse, UniProt P41047 132-279); experiment: SPR, binder captured
T9 sequence: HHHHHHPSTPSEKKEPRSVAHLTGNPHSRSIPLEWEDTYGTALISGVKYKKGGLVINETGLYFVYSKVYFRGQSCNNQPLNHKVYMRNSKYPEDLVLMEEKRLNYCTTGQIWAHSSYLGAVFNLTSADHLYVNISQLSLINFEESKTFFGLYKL
Experimental: as §1, §2

[10] = target: T10, soluble recombinant of human TL1A (His6, GS linker, Leu72-Leu251) (UniProt O95150 72-251); experiment: BIAcore SPR
T10 chain: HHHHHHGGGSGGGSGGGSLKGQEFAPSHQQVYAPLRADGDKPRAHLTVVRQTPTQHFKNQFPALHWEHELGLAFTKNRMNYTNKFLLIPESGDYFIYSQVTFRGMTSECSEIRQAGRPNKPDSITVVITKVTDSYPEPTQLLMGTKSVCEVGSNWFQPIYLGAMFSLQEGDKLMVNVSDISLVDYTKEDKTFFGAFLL
Method in brief: (§3)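 Dissociation constants (Kd, nM) come from surface plasmon resonance measurements on a BIAcore T-100 or T-200 instrument (GE Healthcare) in HBS-EP+ Buffer. Each test molecule was analysed for binding to soluble recombinant His-tagged human or cynomolgus monkey LIGHT, TL1A or FasL.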

[11] = target: T11, soluble recombinant of human LIGHT (His10, GS linker, Asp74-Val240); experiment: BIAcore SPR
T11 chain: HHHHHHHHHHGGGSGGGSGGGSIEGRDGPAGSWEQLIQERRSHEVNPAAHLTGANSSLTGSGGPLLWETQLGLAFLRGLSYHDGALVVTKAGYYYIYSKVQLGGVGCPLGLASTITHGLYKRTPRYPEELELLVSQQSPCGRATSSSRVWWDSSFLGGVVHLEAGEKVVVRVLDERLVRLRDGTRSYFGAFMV
Method in brief: as §3

[12] = target: T12, soluble recombinant of human FasL (His6, Pro134-Leu281) (UniProt P48023 134-281); experiment: BIAcore SPR
T12 chain: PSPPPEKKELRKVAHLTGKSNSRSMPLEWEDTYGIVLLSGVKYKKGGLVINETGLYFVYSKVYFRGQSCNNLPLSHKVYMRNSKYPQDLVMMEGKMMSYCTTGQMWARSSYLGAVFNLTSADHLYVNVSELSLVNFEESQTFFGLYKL
Method in brief: as §3

[13] = target: T2, soluble recombinant of human TL1A …; experiment: SPR, binder captured, trimer ligand
Experimental: (§4) The binding activities to human DcR3 trimer ligands were analyzed by the SPR method. BIAcore T-100 (GE Healthcare) was used for measurement of the binding activities to human LIGHT and human TL1A, and BIAcore T-100 (GE Healthcare) or BIAcore T-200 (GE Healthcare) was used for measurement of the binding activity to human FasL. As the buffer, HBS-EP+Buffer was used.
(§5) After 10,000 RU of anti-human antibodies were immobilized to Series S Sensor Chip CM5 using Human Antibody Capture Kit (both of which are manufactured by GE Healthcare), various wild-type DcR3 controls and DcR3 variants were injected at the flow rate of 10 μL/min for 30 seconds and captured. Meanwhile, the buffer containing no protein was injected into a reference flow cell. Thereafter, as an analyte, each human DcR3 trimer ligand diluted to 0.02 to 80 nmol/L was injected at 30 μL/min for 2 minutes to monitor the binding, and subsequently the buffer was injected for 3 minutes to monitor dissociation. Then, 3 mol/L magnesium chloride was injected at 30 μL/min for 1 minute to perform a regeneration reaction.

[14] = target: T13, FLAG-LIGHT (FLAG tag, human LIGHT Asp74-Val240) (human, UniProt O43557 74-240); experiment: SPR, binder captured, trimer ligand
T13 construct: SEC trimer fraction; also called soluble recombinant FLAG-LIGHT trimer; soluble human LIGHT trimer
Experimental: as §4, §5

[15] = target: T14, Human His6 Fas Ligand/TNFSF6 (Cell Signaling Technology, Inc.) (human, UniProt P48023 133-281); experiment: SPR, binder captured, trimer ligand
T14 construct: Bought; confirmed as a trimer by SEC-MALS; also called recombinant human His6 Fas Ligand; soluble human FasL trimer
T14 sequence: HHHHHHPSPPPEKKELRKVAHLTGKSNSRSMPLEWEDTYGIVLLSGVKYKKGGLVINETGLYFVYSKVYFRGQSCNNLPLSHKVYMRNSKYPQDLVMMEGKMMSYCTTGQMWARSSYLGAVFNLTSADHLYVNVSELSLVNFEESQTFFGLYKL
Experimental: as §4, §5

Binder	Kd [1] [nM]	koff [1] [s⁻¹]	kon [1] [M⁻¹ s⁻¹]	Kd [2] [nM]	koff [2] [s⁻¹]	kon [2] [M⁻¹ s⁻¹]	Kd [3] [nM]	koff [3] [s⁻¹]	kon [3] [M⁻¹ s⁻¹]	Kd [4] [nM]	koff [4] [s⁻¹]	kon [4] [M⁻¹ s⁻¹]	Kd [5] [nM]	koff [5] [s⁻¹]	kon [5] [M⁻¹ s⁻¹]	Kd [6] [nM]	koff [6] [s⁻¹]	kon [6] [M⁻¹ s⁻¹]	binding result [7]	Kd [8] [nM]	further results
chimera A-Fc (IEGRMD g1S) (Fc fusion) ETFPPKYLHYDEETSHQLLCDKCPPGTYLKQHCTAKWKTVCAPCPPRHYTQFWNYLERCRYCNVLCGEREEEARACHATHNRACRCRTGFFAHAGFCLEHASCPPGAGVIAPGTPSQNTQCQPCPDGFFSNETSSKAPCRKHTNCSVFGLLLTQKGNATHDNICSGNSESTQKIEGRM[omitted - human IgG1 Fc with C220S (EU numbers)]	0.63	0.00025	390000	0.36	0.0003	830000	0.76	0.00078	1e+06	0.44	0.00024	540000	0.38	0.00029	760000	0.47	0.0004	840000	no binding (tested: 0.08 to 80 nmol/L)	0.73	koff [8]: 0.0023 s⁻¹; kon [8]: 3.1e+06 M⁻¹ s⁻¹; Kd [9]: 47 nM; koff [9]: 0.0587 s⁻¹; kon [9]: 1.2e+06 M⁻¹ s⁻¹
S195-Fc (Fc fusion, also called S195-Fc (IEGRMD g1S); 5195-Fc) VAETPTYPWRDAETGERLVCAQCPPGTFVQRPCRRDSPTTCGPCPPRHYTQFWNYLERCRYCNVLCGEREEEARACHATHNRACRCRTGFFAHAGFCLEHASCPPGAGVIAPGTPSQNTQCQPCPPGTFSASSSSSEQCQPHRNCTALGLALNVPGSSSHDTLCTSIEGRM[omitted - human IgG1 Fc with C220S (EU numbers)]	2.2	0.00061	280000	1.1	0.00091	840000	1.7	0.0015	860000	1.7	0.00059	340000	1.1	0.00088	790000	1.1	0.00084	750000	no binding (tested: 0.08 to 80 nmol/L)	1.2	koff [8]: 0.002 s⁻¹; kon [8]: 1.7e+06 M⁻¹ s⁻¹; koff [9]: 0.0056 s⁻¹; kon [9]: 580000 M⁻¹ s⁻¹; Kd [10]: 0.38 nM; Kd [11]: 0.42 nM; Kd [12]: 1.4 nM
chimera A-Fc (g1S) (Fc fusion) ETFPPKYLHYDEETSHQLLCDKCPPGTYLKQHCTAKWKTVCAPCPPRHYTQFWNYLERCRYCNVLCGEREEEARACHATHNRACRCRTGFFAHAGFCLEHASCPPGAGVIAPGTPSQNTQCQPCPDGFFSNETSSKAPCRKHTNCSVFGLLLTQKGNATHDNICSGNSESTQ[omitted - human IgG1 Fc with C220S (EU numbers)]																					binding result [13]: binds; binding result [14]: binds; binding result [15]: binds; Kd [10]: 0.13 nM; Kd [11]: 0.18 nM; Kd [12]: 0.65 nM
